Data reported in the RNAGym collection of RNA variant scans (doi:10.7554/elife.90254).
The source gives no read counts; variants with many changes may rest on few reads.

B1: OR4K15 (parent)
chain: GUUAACGGUCAUAGGCCAUGGAAACUAGGAGCACCAUUUCGCUGCCAGUGAAGAAAUGAACAAAGAAAAUCUGGGCCAGGCAGGCAUCAAAAGAAAUAGUCUUGCGCUCAACCAGAAAGUCUGUAAUCAUUUUAAGGGUA

Variants of: B1
Assay: self-cleavage, relative activity (ratio to wild type); higher = more cleavage; in vitro, sequencing; the parent is a self-cleaving ribozyme

Row | Variant | self-cleavage
1 | A24G A96C U132C | 1.01
2 | A27U U49A U108C U133C | 0.01
3 | U26C U87C C109U U120C U122A | 0.06
4 | A27G A54G A96G U97C | 0.86
5 | U26C A62U U70C | 0.62
6 | A24U U100A U131C | 0.57
7 | U26C A36G U100C | 2.28
8 | A24G U108C A126G | 0.01
9 | A24U A30G U70C A78U U102C A126U | 0.35
10 | A24U A62U A89G | 1.25
11 | U26A A51U A69G | 1.25
12 | A24G A82G U132A | 0.76
13 | A24G A86G G104A A117G | 0.05
14 | C25A A64U A90U A118G | 1.05
15 | A24G A78C C81U | 0.21
16 | A27G U43C A78U A117G | 0.48
17 | U26C A60G A92G A117G | 1.3
18 | A27G A30U A55G U70A | 0.66
19 | U26C U49A A60G A68G A96G A140G | 0.82
20 | A24U A33G G123A | 0.96
21 | A24G A90G A91G A110G | 0.11
22 | A24G U38A U49A U70C A118G | 1.09
23 | A27G G79U U103C | 0.05
24 | A24G U100A G104A A114G | 0.01

Row | Variant | self-cleavage
25 | A27G A54G C113U | 0.06
26 | A24G U72C A96G | 0.16
27 | U26A A27G U49A A91U A114G | 0.1
28 | U26C A51U A56G U127C | 0.35
29 | A27G A68G A111G | 0.05
30 | A27G U43C A51U A64G A114C | 0.05
31 | U26G A33G A51G A90G U100C A116C A118G | 0.02
32 | U26C C81U A96U U122C | 0.38
33 | A27G U39C U43A | 0.9
34 | U26C A67G A96U U108C | 0.04
35 | A24G C34U U87G | 0.7
36 | C25A A116G U127C A135G | 0.16
37 | A27G U39A A64G A67G A86G | 2.1
38 | A27G U70C A94G A118U U122C | 0.12
39 | A27G U38C A69U A82G A94U | 0.43
40 | A27G A36G U38C U43A C76U U100C | 0.07
41 | A24G A98U U132C | 1.79
42 | A24G A68U A69G U72C A117G A125G | 0.02
43 | A24G A68U A69C | 1.51
44 | A27G A60G A69G A117G U139C | 0.84
45 | A24U U43C U57C A117G | 1.23
46 | U26C A52G U131C | 0.42
47 | U26C A55G U103C | 0.38
48 | U26C A55G A114U U120C U122C | 0.01

Row | Variant | self-cleavage
49 | A27U A52G A62G A69G A94G | 1.17
50 | A24U U37C A67G A129U U130C | 0.76
51 | A27G U39C U72C A78U U97C | 0.09
52 | A27U U39C A51C A52G A117G A135G | 2.5
53 | A27U U49G U102C A117G A129G | 2.11
54 | A24G C32U U132C | 0.41
55 | A24U U122A U130G | 1.65
56 | A24G G44A A59U U100C | 2.67
57 | A24G U87A U103A A118G | 0.35
58 | A24U A63C A64G A110G | 0.3
59 | G29A A30G A116G | 0.98
60 | A27U A59G U131C | 0.71
61 | U26A A33U A126G | 1.25
62 | A24G A90G A96G U124A | 0.5
63 | U26C A30G A78G A98G | 0.12
64 | U26C A69G A95G A110G | 0.17
65 | A27C A69G U70A A114U A135U | 0.07
66 | A24G U39C A67G A86G A92G U132C | 1.25
67 | A24G U38A A94G A98U | 2.17
68 | U26C A47U A52G A59U U108C A116G | 0.02
69 | A27U U38C U127A | 2.83
70 | A24G A86U A114U | 0.2
71 | A27U A47G A54G A68G A92U A117G | 2.24
72 | A24G U37C A110G A135U | 0.11

Row | Variant | self-cleavage
73 | A27U G29A A134U | 1.22
74 | A24G U26C A95G | 0.86
75 | A27G A68G U70C | 1.03
76 | A24G U108C A116U | 0
77 | A24U A47U A59G | 0.79
78 | U26C U43C A86C A117G | 0.6
79 | A24G G44A U108C | 0.02
80 | A27G A36U U100C A114U | 0.16
81 | U26A A56G A78C A92G A94G | 0.32
82 | A27U A59G A64G A69U U102C | 1.76
83 | U26C A36G U43C A86G A89G | 0.66
84 | U26C U122C U127A | 0.72
85 | A27G A56G A95G | 2.37
86 | A27G U39A A62G | 0.76
87 | A24G A78G A89U A140G | 0.31
88 | A24G G58A A82U U130C | 0.14
89 | A27C G73A A90G A92G A94G U124C | 0.04
90 | A27G A116U A135U | 0.45
91 | C25U A47G U57C C112U | 0.03
92 | C25A A111G A140U | 0
93 | A24G U26A U70C | 0.49
94 | G28A A60G A66G | 0.92
95 | U26C A30G A60U | 1.42
96 | A24G U139C A140G | 2.71

Row | Variant | self-cleavage
97 | A27G G28U A51G C121A | 2.09
98 | U26C A56G A62U A89G U131C | 0.51
99 | A24G A98U C109U | 0.78
100 | A27U U57C A89U | 1.7
101 | A27G A62G A86G U108C A111C | 0.01
102 | A24G A91G U122C | 0.54
103 | A24U A91C A114G | 0.36
104 | A24G A89U U102C U103C | 0.27
105 | U26A A27G A51U | 1.16
106 | A27G U102A A125G | 0.21
107 | U26C U38C A64G U72C A89G | 0.31
108 | A27U A52G A64G A96G A111U A118G U122C | 0.13
109 | A24G A69G A89G A117G | 1.53
110 | A27G U49C A78U U122C | 0.19
111 | A24U A30G U37C U38C U49C U72A A94G U132A | 0.23
112 | A27G A36U U87A A116U | 0.61
113 | A24G G29A A59U U97A | 0.76
114 | A27G U43A A86G U87C U122G | 1.59
115 | A27U G48A A116U A125G U127C | 0.05
116 | C25U A66G U70C A95G U102C | 0.83
117 | A24U A60G A91G A92G U108A A126G | 0.01
118 | A27G A55G U108A | 0.02
119 | C25U A36G C46U U102C G115U | 0.12
120 | A27U A59G A62C U70C A91G | 0.24

Row | Variant | self-cleavage
121 | U26C A51G U70C A82G A114U | 0.04
122 | A27U U39C A82C | 0.23
123 | A27U A63G U87C U102C A118G A140U | 2.58
124 | G28C U39A A82G U108G | 0.02
125 | A24G U43A A86G U122C A129G | 0.97
126 | A24G G58U G123A | 0.92
127 | U26C G28A A33G A90G U130C | 0
128 | A27G A118G U127C | 0.28
129 | A24U U43C A116G | 0.57
130 | A27G A52U A89G U120C | 0.91
131 | A24G U43C A56G | 1.62
132 | U26C A67C U130C | 0.74
133 | A24G C77U A118C U122C | 1.11
134 | U26C A54G U102A | 0.78
135 | A27G U39G U70C U87C A89G U131C | 0.39
136 | U26C U39A A96G A118U | 0.3
137 | A27G A33G U87C | 0.79
138 | A24G A91G A111C | 0.03
139 | A27G U70C U103C A126G | 0.18
140 | G28U U39C A90U A117G | 2.71
141 | U26C U49C A135G | 1.94
142 | A24U U43C A63G A118G | 2.18
143 | A24G A117G A125G U127A | 2.08
144 | A24G U49A U87C | 1.01

Row | Variant | self-cleavage
145 | A27G U38C U57C A98G A134G | 0.2
146 | A27U A30G A51C U130C | 0.75
147 | U26A G79A A94G A110G | 0.04
148 | G28A G41A A86G | 0.04
149 | A24G G44A U100C C105G U131C | 0
150 | A27G U38C C45U U57C | 1.2
151 | A24G U49C A117G U127C | 0.99
152 | U26A A59G A62G A78G U124C | 0.11
153 | U26C U37C A60G A69G A117G | 0.24
154 | U26C A51U A110U A125U U133C A134G | 2.3
155 | A24G U102C U108C A110C | 0
156 | A24G U49C U87C U103C | 0.32
157 | U26C A27G U108C A126G | 0.01
158 | U26C A126G U131C | 0.47
159 | A27G U38G U43C A52G U108C A140G | 0.01
160 | A24G A96G A116G | 0.86
161 | A27G A82G A125G | 0.14
162 | G28A G31A U37C A51G U108G U139C | 0.03
163 | A27G A59U G83U U102A | 0.64
164 | A24G U37C A56G | 2.4
165 | A27G U49G C113G U132A | 0
166 | A27G A62U A67G A68G A140U | 1.69
167 | U26C U72C A95G U108C | 0.02
